Source: PubChem BioAssay AID757 (NMMLSC, 2007)
Among all 190,000 compounds or so, about 520 (0.27%) were called active. This list was built around the results that the source calls inconclusive (neither active nor inactive); the mix of calls is not that of the screen.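 The calls were made as follows: active = GTP binding activity at least 20 points away from the 100% control level, either lower or higher; inconclusive = compound flagged as likely green fluorescent, judged across all proteins; inactive = the rest.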

What follows are compounds tested against Ras-related C3 botulinum toxin substrate 1 (Homo sapiens) (UniProt P63000) (assay: wildtype Rac1 GTP binding modulators, primary screen, biochemical, GST-Rac1 beads, flow cytometry, multiplex (AID 757)). Settings: fluorescent GTP binding, at 10 µM, actives lie on both sides, 0 = cold GTP competed, 100 = untreated.
`COc1ccc(/C=C2\SC(=S)N(CCCC(=O)NNC(=O)c3ccccc3O)C2=O)cc1` was tested, and the GTP binding activity (% of control) was active: 79%.
In the case of `Cc1ccccc1NC(=O)C1CCCN1S(=O)(=O)c1cccc2cccnc12` (centres undefined), the GTP binding activity (% of control) is reported as active: 128% [activator].
For `Cc1ccc(C)c(-n2c3nc(=O)[nH]c(=O)c-3cc3cc([N+](=O)[O-])ccc32)c1`, the GTP binding activity (% of control) was inconclusive: 94%.
`COc1ccc(C(=O)c2ccc([N+](=O)[O-])cc2Cl)cc1` was tested, and the GTP binding activity (% of control) was inconclusive: 89%.
In the case of `COc1ccc(CCNC(=O)C2CCCN2C(=O)NC2CCCCC2)cc1OC` (centres undefined), the GTP binding activity (% of control) is reported as active: 143% [activator].
With `CC(=O)N1C(=O)/C(=C2\SC(=S)N(NC(=O)c3ccc(O)cc3)C2=O)c2ccccc21` the GTP binding activity (% of control) was inconclusive: 76%.
With `CCOc1cc(/C=N/Nc2nc(-c3cccc(S(=O)(=O)N4CCCC4)c3)cs2)ccc1O` the GTP binding activity (% of control) was inconclusive: 83%.
In the case of `N#CCCn1c(SCC(=O)Nc2ccc(N3CCOCC3)cc2)nc2ccccc21`, the GTP binding activity (% of control) is reported as inactive: 102%.
For `COc1cccc(NC(=S)NCc2ccc3c(c2)cc(C)n3C)c1`, the GTP binding activity (% of control) was inconclusive: 91%.
With `CC1CC(C)CN(C(=O)COc2ccc([N+](=O)[O-])cc2Cl)C1` (centres undefined) the GTP binding activity (% of control) was inactive: 96%.
With `COc1ccc(-n2nc(C(=O)Nc3cc(OC)c(OC)c(OC)c3)c3ccccc3c2=O)c(OC)c1` the GTP binding activity (% of control) was inconclusive: 94%.
`CN(C)c1ccc(/C=C2\SC(=S)N(Nc3ncc(C(F)(F)F)cc3Cl)C2=O)cc1` was tested, and the GTP binding activity (% of control) was inconclusive: 150%.
`Nc1nonc1C(=O)N/N=C/c1ccc(-c2ccc(Cl)c(C(=O)O)c2)o1` was tested, and the GTP binding activity (% of control) was inconclusive: 90%.
`CCC(=O)NCCCCCCNC(=O)CC` was tested, and the GTP binding activity (% of control) was inconclusive: 105%.
`CCN(C(=O)Cc1ccc(Br)cc1)C1CCCCC1` was tested, and the GTP binding activity (% of control) was inconclusive: 90%.
In the case of `CC(NC(=O)COc1ccccc1F)C1CC2CCC1C2` (centres undefined), the GTP binding activity (% of control) is reported as inactive: 98%.
With `CCCC1=NN(C(=O)Cc2ccc([N+](=O)[O-])cc2)C(O)(C(F)(F)F)C1` (centres undefined) the GTP binding activity (% of control) was inactive: 96%.
In the case of `Cc1ccc(/C=N/N(C)C2=NS(=O)(=O)c3ccccc32)o1`, the GTP binding activity (% of control) is reported as active: 64%.
For `Cc1ccc(N2C(=O)c3cccc4c(N5CCN(C)CC5)ccc(c34)C2=O)c2cccnc12`, the GTP binding activity (% of control) was inconclusive: 106%.
For `CCC(C)(C)n1nnnc1C(c1cc2cccc(C)c2[nH]c1=O)N1CCCC1` (centres undefined), the GTP binding activity (% of control) was inconclusive: 109%.
`Cc1ccc(NC(=O)CS(=O)(=O)c2c[nH]c3ccccc23)c(C)c1` was tested, and the GTP binding activity (% of control) was inconclusive: 580%.
`CCCC(=O)Nc1ccc2c(c1)nc(CCNC(=O)c1ccccc1)n2C` was tested, and the GTP binding activity (% of control) was inconclusive: 104%.
For `Cc1ccc(C(=O)NNC(=O)CSc2nnc3c(n2)[nH]c2ccc(C)cc23)cc1`, the GTP binding activity (% of control) was inconclusive: 92%.
For `CC(C)=C1C2CCC1C1C(=O)N(c3nc(-c4ccccc4)c(C)s3)C(=O)C21` (centres undefined), the GTP binding activity (% of control) was inactive: 103%.
